The list shows a part of the results.

The target in the assay is T1, MBP-FoxP1dN (Mus musculus, UniProt P58462 326-579).
T1 sequence: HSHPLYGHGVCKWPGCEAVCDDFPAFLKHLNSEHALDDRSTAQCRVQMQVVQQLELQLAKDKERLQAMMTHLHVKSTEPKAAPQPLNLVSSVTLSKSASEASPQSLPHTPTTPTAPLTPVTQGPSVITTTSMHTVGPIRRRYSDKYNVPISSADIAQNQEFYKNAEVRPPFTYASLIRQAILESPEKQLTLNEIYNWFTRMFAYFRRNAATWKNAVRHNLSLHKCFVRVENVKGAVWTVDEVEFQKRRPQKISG
Put plainly: PD-seq (MBP pull-down with sequencing); 20 mM Tris-HCl pH 7.5, 100 mM NaCl, 1.5 mM MgCl2, 0.4 uM protein, 0.1 uM dsDNA library, 30 min, room temperature, amylose pull-down; high values mean tight binding. The conditions noted are these: protein: recombinant; tags: His6-MBP; chain copies: 2; dsDNA, one strand shown. An outline of the steps: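 His6-MBP-tagged mouse FoxP3 or FoxP1 fragment lacking the N-terminus, expressed in E. coli, was mixed at 0.4 µM with 0.1 µM Klenow-filled double-stranded degenerate DNA library. Incubation was 30 min at room temperature in Tris pH 7.5 buffer with NaCl and MgCl2. Complexes were caught on amylose resin and washed three times; DNA was released with proteinase K, PCR-barcoded and Illumina-sequenced. Binding is reads-per-million enrichment, pull-down over input, with replicates pooled.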
As for “GATGATTGTTCTCCCAGCTGATGAATTTAGGTGGTCGAGTAAACAAATTTTCCTAATCTTTCTGTTCAAGCGCCATCTAC”, the binding signal was 0.899 RPM ratio (pull-down/input).

As to “GATGATTGTTCTCCCAGCTGATGAATTAGCAGATTCGAGTAAACAAATTTTCCTAATCTTTCTGTTCAAGCGCCATCTAC”, the binding signal was 0.903 RPM ratio (pull-down/input).

As for “GATGATTGTTCTCCCAGCTGATGAATTCAGTTACTCGAGTAAACAAATTTTCCTAATCTTTCTGTTCAAGCGCCATCTAC”, the binding signal is 0.896 RPM ratio (pull-down/input).

On to “GATGATTGTTCTCCCAGCTGATGAATTCTGATTATCGAGTAAACAAATTTTCCTAATCTTTCTGTTCAAGCGCCATCTAC”, for which the binding signal was 1.37 RPM ratio (pull-down/input).

For the sequence “GATGATTGTTCTCCCAGCTGATGAATTAAGATGTTCGAGTAAACAAATTTTCCTAATCTTTCTGTTCAAGCGCCATCTAC”, the binding signal was 0.935 RPM ratio (pull-down/input).

Take “GATGATTGTTCTCCCAGCTGATGAATTTCCCAGCTCGAGTAAACAAATTTTCCTAATCTTTCTGTTCAAGCGCCATCTAC”: the binding signal is 0.875 RPM ratio (pull-down/input).

For the sequence “GATGATTGTTCTCCCAGCTGATGAATTGAGGCTCTCGAGTAAACAAATTTTCCTAATCTTTCTGTTCAAGCGCCATCTAC”, the binding signal was 0.818 RPM ratio (pull-down/input).

In the case of “GATGATTGTTCTCCCAGCTGATGAATTAAAGGGGTCGAGTAAACAAATTTTCCTAATCTTTCTGTTCAAGCGCCATCTAC”, the binding signal is 0.816 RPM ratio (pull-down/input).

For “GATGATTGTTCTCCCAGCTGATGAATTTGCCACTTCGAGTAAACAAATTTTCCTAATCTTTCTGTTCAAGCGCCATCTAC”, the binding signal was 1.11 RPM ratio (pull-down/input).

With “GATGATTGTTCTCCCAGCTGATGAATTTTATGATTCGAGTAAACAAATTTTCCTAATCTTTCTGTTCAAGCGCCATCTAC”, the binding signal was 1.15 RPM ratio (pull-down/input).

With “GATGATTGTTCTCCCAGCTGATGAATTGTCGTAGTCGAGTAAACAAATTTTCCTAATCTTTCTGTTCAAGCGCCATCTAC”, the binding signal is 1.02 RPM ratio (pull-down/input).

For the sequence “GATGATTGTTCTCCCAGCTGATGAATTCTGGACGTCGAGTAAACAAATTTTCCTAATCTTTCTGTTCAAGCGCCATCTAC”, the binding signal is 0.779 RPM ratio (pull-down/input).

On to “GATGATTGTTCTCCCAGCTGATGAATTATGGGATTCGAGTAAACAAATTTTCCTAATCTTTCTGTTCAAGCGCCATCTAC”, for which the binding signal is 0.923 RPM ratio (pull-down/input).

With “GATGATTGTTCTCCCAGCTGATGAATTACGGGCGTCGAGTAAACAAATTTTCCTAATCTTTCTGTTCAAGCGCCATCTAC”, the binding signal is 0.931 RPM ratio (pull-down/input).

Take “GATGATTGTTCTCCCAGCTGATGAATTTCCAGTCTCGAGTAAACAAATTTTCCTAATCTTTCTGTTCAAGCGCCATCTAC”: the binding signal is 0.762 RPM ratio (pull-down/input).

As to “GATGATTGTTCTCCCAGCTGATGAATTCGTTGTTTCGAGTAAACAAATTTTCCTAATCTTTCTGTTCAAGCGCCATCTAC”, the binding signal is 1.22 RPM ratio (pull-down/input).

As to “GATGATTGTTCTCCCAGCTGATGAATTCTCTCTATCGAGTAAACAAATTTTCCTAATCTTTCTGTTCAAGCGCCATCTAC”, the binding signal was 0.939 RPM ratio (pull-down/input).

For the sequence “GATGATTGTTCTCCCAGCTGATGAATTATACCGTTCGAGTAAACAAATTTTCCTAATCTTTCTGTTCAAGCGCCATCTAC”, the binding signal is 1.08 RPM ratio (pull-down/input).

On to “GATGATTGTTCTCCCAGCTGATGAATTTAATCGATCGAGTAAACAAATTTTCCTAATCTTTCTGTTCAAGCGCCATCTAC”, for which the binding signal was 0.923 RPM ratio (pull-down/input).

As to “GATGATTGTTCTCCCAGCTGATGAATTCTGGTGTTCGAGTAAACAAATTTTCCTAATCTTTCTGTTCAAGCGCCATCTAC”, the binding signal was 1.05 RPM ratio (pull-down/input).

Take “GATGATTGTTCTCCCAGCTGATGAATTATAGCATTCGAGTAAACAAATTTTCCTAATCTTTCTGTTCAAGCGCCATCTAC”: the binding signal is 1.32 RPM ratio (pull-down/input).

Take “GATGATTGTTCTCCCAGCTGATGAATTTTGACCATCGAGTAAACAAATTTTCCTAATCTTTCTGTTCAAGCGCCATCTAC”: the binding signal is 0.935 RPM ratio (pull-down/input).

Turning to “GATGATTGTTCTCCCAGCTGATGAATTACCCCTCTCGAGTAAACAAATTTTCCTAATCTTTCTGTTCAAGCGCCATCTAC”, the binding signal is 0.961 RPM ratio (pull-down/input).

Regarding “GATGATTGTTCTCCCAGCTGATGAATTGCATTCCTCGAGTAAACAAATTTTCCTAATCTTTCTGTTCAAGCGCCATCTAC”, the binding signal is 1.33 RPM ratio (pull-down/input).

In the case of “GATGATTGTTCTCCCAGCTGATGAATTTACACGATCGAGTAAACAAATTTTCCTAATCTTTCTGTTCAAGCGCCATCTAC”, the binding signal is 1.22 RPM ratio (pull-down/input).

For the sequence “GATGATTGTTCTCCCAGCTGATGAATTCCTACAGTCGAGTAAACAAATTTTCCTAATCTTTCTGTTCAAGCGCCATCTAC”, the binding signal was 0.795 RPM ratio (pull-down/input).

In the case of “GATGATTGTTCTCCCAGCTGATGAATTTAGGATTTCGAGTAAACAAATTTTCCTAATCTTTCTGTTCAAGCGCCATCTAC”, the binding signal is 0.978 RPM ratio (pull-down/input).

As for “GATGATTGTTCTCCCAGCTGATGAATTGCCACCTTCGAGTAAACAAATTTTCCTAATCTTTCTGTTCAAGCGCCATCTAC”, the binding signal was 0.995 RPM ratio (pull-down/input).

Consider “GATGATTGTTCTCCCAGCTGATGAATTATCGTGCTCGAGTAAACAAATTTTCCTAATCTTTCTGTTCAAGCGCCATCTAC”, for which the binding signal was 1.01 RPM ratio (pull-down/input).

Regarding “GATGATTGTTCTCCCAGCTGATGAATTCCTAGTTTCGAGTAAACAAATTTTCCTAATCTTTCTGTTCAAGCGCCATCTAC”, the binding signal is 0.893 RPM ratio (pull-down/input).

As for “GATGATTGTTCTCCCAGCTGATGAATTTCACAAATCGAGTAAACAAATTTTCCTAATCTTTCTGTTCAAGCGCCATCTAC”, the binding signal was 1.23 RPM ratio (pull-down/input).

(Values after article PMC12820563, “FoxP3 forms a head-to-head dimer in vivo and stabilizes its multimerization on adjacent microsatellites”.)
